Measurements as given in paper PMC4336329 (PLoS ONE, 2015).
Out of some 310,000 compounds screened, about 14,000 (4.5%) showed an effect of 50% or more. The effect is printed as a negative number. The list shows a part of the results.

molecular target: human ether-à-go-go-related gene (hERG) potassium channel (human, UniProt Q12809); assay: primary screen, population patch clamp on CHO cells stably expressing hERG
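Also: peak tail current of the secondary pulse compared with the same well before compound.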

Sequence of human ether-à-go-go-related gene (hERG) potassium channel (Q12809 whole entry, looked up): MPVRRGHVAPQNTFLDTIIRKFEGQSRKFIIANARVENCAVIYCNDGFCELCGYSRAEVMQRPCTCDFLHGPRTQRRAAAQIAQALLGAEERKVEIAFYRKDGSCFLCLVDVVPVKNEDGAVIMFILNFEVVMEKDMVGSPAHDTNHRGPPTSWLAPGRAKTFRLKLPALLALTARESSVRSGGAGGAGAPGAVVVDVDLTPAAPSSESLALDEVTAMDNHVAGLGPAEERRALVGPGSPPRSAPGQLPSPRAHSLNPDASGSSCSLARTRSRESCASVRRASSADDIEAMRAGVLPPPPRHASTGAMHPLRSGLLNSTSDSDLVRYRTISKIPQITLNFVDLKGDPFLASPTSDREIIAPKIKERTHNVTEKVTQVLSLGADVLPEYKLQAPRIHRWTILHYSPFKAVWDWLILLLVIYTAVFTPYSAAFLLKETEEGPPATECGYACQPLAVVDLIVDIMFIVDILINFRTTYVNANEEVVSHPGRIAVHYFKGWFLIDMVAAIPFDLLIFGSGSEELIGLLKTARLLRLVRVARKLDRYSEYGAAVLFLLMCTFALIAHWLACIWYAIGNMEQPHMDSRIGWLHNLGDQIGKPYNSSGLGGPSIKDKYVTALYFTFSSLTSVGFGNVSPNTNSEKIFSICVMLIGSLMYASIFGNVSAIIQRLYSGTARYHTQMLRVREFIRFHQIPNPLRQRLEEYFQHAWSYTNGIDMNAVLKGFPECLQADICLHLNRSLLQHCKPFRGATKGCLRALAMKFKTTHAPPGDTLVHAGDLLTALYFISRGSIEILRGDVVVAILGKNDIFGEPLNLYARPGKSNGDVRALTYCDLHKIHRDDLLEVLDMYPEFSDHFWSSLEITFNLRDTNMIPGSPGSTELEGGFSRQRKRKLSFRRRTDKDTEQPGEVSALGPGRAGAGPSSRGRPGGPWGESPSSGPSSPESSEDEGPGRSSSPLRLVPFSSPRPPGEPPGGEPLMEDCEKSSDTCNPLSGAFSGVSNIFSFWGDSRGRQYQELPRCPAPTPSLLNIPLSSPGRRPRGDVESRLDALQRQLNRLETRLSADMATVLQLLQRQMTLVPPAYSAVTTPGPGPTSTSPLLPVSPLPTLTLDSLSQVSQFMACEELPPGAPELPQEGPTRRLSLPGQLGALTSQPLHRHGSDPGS

First: CC(C)OCCCn1c(=S)[nH]c2cc3c(cc2c1=O)OCO3
Second: CCn1cc(C(=O)N[C@@H](CCSC)C(=O)NCCCN2CCOCC2)c(=O)c2cc3c(cc21)OCO3
The “hERG current change (%, negative = inhibition) at 10uM” value of the first is lower: 18.9% for the first, 36.4% for the second.

Going from O=C(Cc1ccccc1)N[C@@H](Cc1ccccc1)C(=O)O to O=C(O)C(Cc1ccccc1)n1cccc1 (centres unmarked), the “hERG current change (%, negative = inhibition) at 10uM” value rises from 7.29% to 17.4%.

First: COc1ccc(/C=C/c2nc(C#N)c(NCCN(C)C)o2)cc1OC
Second: CCOC(=O)c1c(C)c(C)n(Cc2ccc(OC)c(OC)c2)c1C
The “hERG current change (%, negative = inhibition) at 10uM” value of the first is higher: -6.02% for the first, -10.3% for the second.

Going from CCc1ccc(OC(C)C(=O)N(Cc2ccco2)C2CCS(=O)(=O)C2)cc1 (centres unmarked) to Cc1ccc(OCc2ccc(C(=O)NCC3CCCO3)cc2)cc1C (centres unmarked), the “hERG current change (%, negative = inhibition) at 10uM” value rises from -17.5% to -8.8%.

First: Cc1cc(OCc2cc(C(=O)N(C)Cc3ccccn3)no2)cc(C)c1Cl
Second: Cc1noc(C)c1COc1cccc(C(=O)Oc2ccc3c(c2)OCO3)c1
The “hERG current change (%, negative = inhibition) at 10uM” value of the first is lower: -21.8% for the first, -10.1% for the second.

Compared with O=C(N/N=C/c1ccc2nccnc2c1)c1ccc(Br)cc1, COc1ccc(NC(=O)c2cccnc2)cc1 is lower in “hERG current change (%, negative = inhibition) at 10uM” value: 10.7% for the first, -11.1% for the second.

Going from O=Cc1cn(-c2ccccc2)nc1-c1ccncc1 to CCn1nnc(-c2ccccc2NC(=O)c2cccc(-n3cnnn3)c2)n1, the “hERG current change (%, negative = inhibition) at 10uM” value rises from -33% to -28.8%.

Compared with C=CCn1c(SCC(N)=O)nnc1-c1cc2c(s1)CCC(CC)C2 (centres unmarked), CCn1c(SCC(=O)Nc2nc(C)cs2)nnc1C(C)NC(=O)c1ccccc1 (centres unmarked) is higher in “hERG current change (%, negative = inhibition) at 10uM” value: -0.879% for the first, 7.9% for the second.

First: CCn1nc(C(=O)Nc2ccc(C)c(C)c2)c(Cl)c1Cl
Second: O=C(Nc1nc(=S)ss1)c1ccc(Cl)cc1Cl
The “hERG current change (%, negative = inhibition) at 10uM” value of the first is lower: 7.65% for the first, 11.3% for the second.

Going from CN1CCN(c2c(F)cc3c(=O)c(C(=O)O)cn4c3c2SCC4)CC1 to COc1ccccc1-c1coc2c(CN3CCN(C)CC3)c(O)ccc2c1=O, the “hERG current change (%, negative = inhibition) at 10uM” value rises from -5.77% to 0.916%.

First: CC(NC(=O)COc1ccc(Oc2ccccc2)cc1)C(=O)O (centres unmarked)
Second: CCOc1ccc(-c2cc(C(=O)O)c3ccccc3n2)cc1
The “hERG current change (%, negative = inhibition) at 10uM” value of the first is lower: -9.88% for the first, 15.3% for the second.

Going from CCOC(=O)c1sc2nc(CC(=O)OC)nc(NCc3ccc(Cl)cc3)c2c1C to COC(=O)C1=C(C)OC(N)=C(C#N)C1c1cc2cccc(C)c2nc1Cl (centres unmarked), the “hERG current change (%, negative = inhibition) at 10uM” value rises from -7.35% to -5.39%.

First: CCCC(=O)NCc1cc(-c2nn(C)c(=O)c3ccccc23)ccc1C
Second: CCCc1nc2ccccc2c(=O)n1/N=C/c1c(C)[nH]n(-c2ccc(C)cc2)c1=O
The “hERG current change (%, negative = inhibition) at 10uM” value of the first is higher: 5.42% for the first, -3.66% for the second.

First: CCOC(=O)c1c(S(=O)(=O)NCC(=O)Nc2ccccc2F)c(C)n(C)c1C
Second: CCOc1ncccc1C(=O)OCC(=O)Nc1cc(S(=O)(=O)N(CC)CC)ccc1C
The “hERG current change (%, negative = inhibition) at 10uM” value of the first is higher: 21.3% for the first, -42.8% for the second.

Compared with O=c1[nH]c(CSc2nnnn2-c2ccccc2)nc2ccccc12, Clc1nc(Nc2ccccc2)nc(Nc2ccccc2)n1 is lower in “hERG current change (%, negative = inhibition) at 10uM” value: 9.17% for the first, -6.63% for the second.

Compared with Cc1noc(C)c1COc1ccc(C(=O)N2CC(C)CC(C)C2)cc1 (centres unmarked), Cc1onc(-c2c(F)cccc2Cl)c1C(=O)N1CCCc2ccccc21 is lower in “hERG current change (%, negative = inhibition) at 10uM” value: -20.7% for the first, -21.5% for the second.

Going from Cc1ccccc1Nc1nnc(SCC(=O)NC2CCCc3ccccc32)s1 (centres unmarked) to COCC(C)NC(=O)CSc1nc(-c2ccccc2)c(-c2ccccc2)o1 (centres unmarked), the “hERG current change (%, negative = inhibition) at 10uM” value falls from -21.3% to -35.9%.

Compared with COCC(C)NCC(=O)NC(C)CCc1ccccc1.O=C(O)C(=O)O (centres unmarked), O=C(CC1COc2ccccc2O1)NCCc1ccccc1 (centres unmarked) is higher in “hERG current change (%, negative = inhibition) at 10uM” value: -17.1% for the first, -12.6% for the second.

First: Cc1ccccc1CS(=O)(=O)c1nnc([C@H](CC(C)C)NC(=O)OC(C)(C)C)o1
Second: CC(=O)N1CCc2cc(S(=O)(=O)NC(CC(C)C)C(=O)Nc3cc(C(=O)O)ccc3C)ccc21 (centres unmarked)
The “hERG current change (%, negative = inhibition) at 10uM” value of the first is lower: -14.6% for the first, 8.35% for the second.

Compared with CCN(CCO)c1nc(N2CCCCC2)c2cnn(C)c2n1, CCOC(=O)Nc1ccc2c(c1)nc(CN1CCCCC1)n2C is lower in “hERG current change (%, negative = inhibition) at 10uM” value: 3.12% for the first, -7.84% for the second.

First: CSc1ccc(CN2CCCC(CNC(=O)c3ccc(F)cc3)C2)cc1 (centres unmarked)
Second: CC(=O)Nc1cc(C(=O)N2CCC3(CC2)OCCO3)ccc1Sc1ccc(F)cc1
The “hERG current change (%, negative = inhibition) at 10uM” value of the first is lower: -70.8% for the first, 2.37% for the second.

First: O=C(OCC(=O)N1CCN(C(=O)c2ccco2)CC1)c1cc(-c2ccc(F)cc2)nc2ccccc12
Second: O=C(Cc1n[nH]c(=O)c2ccccc12)OCC(=O)c1ccc(F)cc1
The “hERG current change (%, negative = inhibition) at 10uM” value of the first is lower: -59.4% for the first, -6.22% for the second.

Going from N/C(=N\OC(=O)N1CCOCC1)c1ccccc1 to CCc1nnc(SCC(=O)Nc2ccc(N3CCOCC3)cc2)o1, the “hERG current change (%, negative = inhibition) at 10uM” value falls from 0.112% to -1.88%.

First: COC(=O)C(CCSC)NC(=O)C12CC3CC(CC(C3)C1)C2 (centres unmarked)
Second: CC(=O)OC(C(=O)NCCN1CCOCC1)c1c(F)cccc1F (centres unmarked)
The “hERG current change (%, negative = inhibition) at 10uM” value of the first is higher: 7.17% for the first, -5.91% for the second.

Going from COc1ccccc1NS(=O)(=O)c1ccc(C)c(NS(=O)(=O)c2cc(C(=O)O)cc(C)c2C)c1 to COc1ccc(NC(=O)CCSc2ccc(C)cc2)cc1S(=O)(=O)Nc1ccccc1Cl, the “hERG current change (%, negative = inhibition) at 10uM” value falls from 24.2% to 4.61%.

First: Cc1ccc2nc(CCc3ccc(N)cc3)[nH]c2c1.Cl
Second: COCCN(Cc1cc2cc(C)ccc2nc1Cl)C(=O)Nc1ccccc1C
The “hERG current change (%, negative = inhibition) at 10uM” value of the first is higher: 8.19% for the first, -2.19% for the second.

Going from Cc1ccc2c(CN3CCOCC3)cc(=O)oc2c1C to Cc1ccc(C)c(Cn2nnc3c(=O)[nH]c(C4CCCN(C(=O)c5cccs5)C4)nc32)c1 (centres unmarked), the “hERG current change (%, negative = inhibition) at 10uM” value rises from 0.23% to 0.859%.

Going from O=C(/C=C/c1c(F)cccc1Cl)NCc1ccc2c(c1)OCO2 to CCOc1ccccc1C(=O)NC(C(=O)N(C)Cc1ccc2c(c1)OCO2)C(C)C (centres unmarked), the “hERG current change (%, negative = inhibition) at 10uM” value falls from 0.546% to -34.8%.

First: COc1ccc(-c2nnc3ccc(SC(C(C)=O)C(C)=O)nn23)cc1OC
Second: Cc1ccc(-c2nc3cccnc3s2)cc1NC(=O)c1ccco1
The “hERG current change (%, negative = inhibition) at 10uM” value of the first is lower: -14.8% for the first, -7.62% for the second.

Going from O=C1CS/C(=N/N=C\c2ccn[nH]2)N1 to O=C([O-])CSc1cccc2cccnc12.[Na+], the “hERG current change (%, negative = inhibition) at 10uM” value falls from 13.6% to 4.74%.

Compared with O=C1CCCN1CCCNc1ncnc2c1[nH]c1ccc(Cl)cc12, CCN1CCCC1CNC(=O)c1cc2c(OC)cccc2[nH]1 (centres unmarked) is higher in “hERG current change (%, negative = inhibition) at 10uM” value: -29.4% for the first, -20.8% for the second.

First: COc1cc(CNCCO)cc(Br)c1OCc1ccccc1Cl.Cl
Second: COc1ccccc1CNCC(=O)Nc1ccccc1-n1cccc1.Cl
The “hERG current change (%, negative = inhibition) at 10uM” value of the first is higher: -3.45% for the first, -13.6% for the second.

Going from O=C(O)CCC(=O)N1N=C(c2c(-c3ccccc3)c3cc(Cl)ccc3[nH]c2=O)CC1c1ccco1 (centres unmarked) to Cc1ccc(Cn2c(=O)n(Cc3ccco3)c(=O)c3ccccc32)cc1, the “hERG current change (%, negative = inhibition) at 10uM” value rises from 0.316% to 16.3%.

First: Cc1cccc(N2CCN(CC(O)COc3ccccc3Cl)CC2)c1 (centres unmarked)
Second: O=S(=O)(c1ccccc1)N1CCN(C(=S)Nc2ccccc2Cl)CC1
The “hERG current change (%, negative = inhibition) at 10uM” value of the first is lower: -56% for the first, -1.04% for the second.

Going from FC(F)(F)c1ccc2c(c1)n(Cc1ccccc1)c1[n+]2CCCCC1.[Cl-] to CN(CCNC(=O)c1ccc(CS(=O)(=O)c2c(Cl)cccc2Cl)o1)CCc1ccccc1, the “hERG current change (%, negative = inhibition) at 10uM” value falls from -24% to -70%.

Going from CC1(C)CC(=O)C=C(Nc2ccc([N+](=O)[O-])cc2)C1 to COC(=O)CC/C(O)=C1/C(=N)CC(C)(C)CC1=O, the “hERG current change (%, negative = inhibition) at 10uM” value rises from -16.6% to 24.5%.

Compared with COc1cccc(/C=C2\SC(=S)N(CCCC(=O)N3CCCC3)C2=O)c1, COCCOC1CCN(C(=O)C2CCC(=O)N(Cc3cccc(F)c3)C2)CC1 (centres unmarked) is higher in “hERG current change (%, negative = inhibition) at 10uM” value: -12.3% for the first, 20.1% for the second.

First: S=c1[nH]nc(Cc2noc3ccccc23)n1-c1ccc(Cl)cc1
Second: OCCc1ccc(-c2ccc(Cl)cc2)o1
The “hERG current change (%, negative = inhibition) at 10uM” value of the first is higher: 14.8% for the first, 7.65% for the second.

First: CCCN(CC1CC1)C(=O)COC(=O)c1[nH]c(C)c(C(=O)OCC)c1C
Second: CCOC(=O)c1ccc(S(=O)(=O)N2CCN(C3CCCC3)CC2)cc1
The “hERG current change (%, negative = inhibition) at 10uM” value of the first is lower: -5.5% for the first, 2.59% for the second.

Going from CCC12OC(=N)C(C#N)(C1C)C(C#N)(C#N)C(c1ccccc1)O2 (centres unmarked) to O=C(CCc1nc(-c2ccccc2)no1)NCC1CCCO1 (centres unmarked), the “hERG current change (%, negative = inhibition) at 10uM” value rises from 2.68% to 10.3%.

First: CCOP1(=O)OCC2OC(n3cnc4c(N)ncnc43)C(O)C2O1 (centres unmarked)
Second: CCNC(=O)NC(=O)C(C)Sc1nc2ccccc2c(=O)n1-c1cccnc1 (centres unmarked)
The “hERG current change (%, negative = inhibition) at 10uM” value of the first is higher: 18.6% for the first, 0.423% for the second.

First: COCC(=O)Nc1ccc2c(c1)OCC(=O)N2Cc1ccccc1F
Second: C/C(=N\NC(=O)CNC(=O)C(c1ccccc1)c1ccccc1)c1ccc(C(C)(C)C)cc1
The “hERG current change (%, negative = inhibition) at 10uM” value of the first is lower: 3.71% for the first, 14.8% for the second.

Compared with Cc1cc(/C=C(\C#N)c2nc3ccccc3[nH]2)c(C)n1C, Cc1cccc(N2CCCn3c2nc2c3c(=O)[nH]c(=O)n2C)c1 is lower in “hERG current change (%, negative = inhibition) at 10uM” value: -6.77% for the first, -12.9% for the second.

First: Fc1ccc2nc(Nc3nc4cc5c(cc4s3)OCCO5)sc2c1
Second: COC(=O)N/N=C1\CCCc2c(C)cc(C)cc21
The “hERG current change (%, negative = inhibition) at 10uM” value of the first is higher: 13.6% for the first, 10.1% for the second.

For CS(=O)(=O)NCc1ccc(C(=O)O)cc1, the “hERG current change (%, negative = inhibition) at 10uM” value was 22.1%.
